According to the antibiotic and cytotoxicity screens of Wong et al. (2023):
The other results are listed elsewhere or left out.

test system: S. aureus RN4220; test: growth inhibition call (relative growth <= 0.2); conditions: 50 µM

Growth inhibition call, active:
Cc1nc2c(=O)n(C)c(=O)n(C)c2nc1Cl

Growth inhibition call, inactive:
C[C@H]1CN([C@@H](C)CO)C(=O)c2cc(NC(=O)CCCCCC(=O)Nc3ccccc3N)ccc2O[C@@H]1CN(C)S(C)(=O)=O
C[C@H](CO)N1C[C@H](C)[C@H](CN(C)Cc2ccc(Cl)c(Cl)c2)Oc2ccc(NC(=O)C3CCCCC3)cc2CC1=O
CCS(=O)(=O)NCC[C@H]1CC[C@H](NS(=O)(=O)c2cccc(F)c2)[C@@H](CO)O1
COc1ccc(S(=O)(=O)N(C)C[C@@H]2Oc3ccc(NC(=O)Cc4ccccc4)cc3CC(=O)N([C@@H](C)CO)C[C@@H]2C)cc1
C[C@@H]1CN([C@@H](C)CO)C(=O)c2cccc(NS(=O)(=O)c3ccccc3)c2O[C@@H]1CN(C)S(=O)(=O)c1ccc(F)cc1
CCOC(=O)c1c(CN2CCN(CCOCCO)CC2)n(-c2ccccc2)c2cc(Br)c(O)cc12
Cc1noc(C)c1S(=O)(=O)Nc1ccc2c(c1)C(=O)N([C@@H](C)CO)C[C@H](C)[C@@H](CN(C)C(=O)Nc1ccc(C(F)(F)F)cc1)OCCCC[C@H](C)O2
CN1C(=O)c2cc(NS(C)(=O)=O)ccc2OC[C@@H]2O[C@H](CC(=O)N3CCOCC3)CC[C@@H]21
C[C@H](CO)N1C[C@H](C)[C@@H](CN(C)Cc2cccc3c2OCCCO3)OCc2ccccc2-c2ccccc2C1=O
C[C@@H]1CN([C@H](C)CO)C(=O)c2cc(NC(=O)Nc3ccc(C(F)(F)F)cc3)ccc2O[C@@H](C)CCCCO[C@H]1CN(C)C(=O)NC1CCCCC1
C[C@H](CO)N1C[C@H](C)[C@@H](CN(C)C(=O)NC2CCCCC2)Oc2ccc(NC(=O)Cn3cnnn3)cc2CC1=O
C[C@@H]1CN([C@@H](C)CO)S(=O)(=O)c2ccc(-c3cncnc3)cc2O[C@H]1CN(C)C(=O)C1CCCCC1
COc1ccc(S(=O)(=O)Nc2ccc3c(c2)C(=O)N([C@@H](C)CO)C[C@H](C)[C@@H](CN(C)CC2CCCCC2)OCCCC[C@H](C)O3)cc1
CNC[C@H]1Oc2ccc(NC(=O)CCN3CCOCC3)cc2CC(=O)N([C@H](C)CO)C[C@H]1C
Cc1noc(C)c1S(=O)(=O)N(C)C[C@H]1OCCCC[C@H](C)Oc2ccc(NS(=O)(=O)c3cn(C)cn3)cc2C(=O)N([C@@H](C)CO)C[C@@H]1C
CO[C@H]1CN(C)C(=O)c2ccc(NC(=O)Nc3ccccc3)cc2OC[C@H](C)N(C(=O)CN(C)C)C[C@H]1C
CCCN1C[C@H](C)[C@H](OC)CN(C)C(=O)c2ccc(NS(=O)(=O)c3cn(C)cn3)cc2OC[C@@H]1C
COc1ccc(NC(=O)Nc2ccc3c(c2)C(=O)N([C@@H](C)CO)C[C@H](C)[C@H](CN(C)Cc2ccc(C(=O)O)cc2)OCCCC[C@@H](C)O3)cc1
O=C(C[C@H]1CC[C@H]2[C@@H](COC[C@H](O)CN2S(=O)(=O)c2cccc(Cl)c2)O1)NCc1ccncn1
C[C@@H]1CN([C@H](C)CO)C(=O)Cc2cc(NC(=O)C3CC3)ccc2O[C@H]1CN(C)C(=O)NC1CCCCC1
CC(C)NC(=O)Nc1ccc2c(c1)C(=O)N([C@@H](C)CO)C[C@@H](C)[C@@H](CN(C)C(=O)Nc1ccc(C(F)(F)F)cc1)OCCCC[C@@H](C)O2
Cc1ccc(S(=O)(=O)N(C)C[C@@H]2Oc3c(NC(=O)NC(C)C)cccc3C(=O)N([C@H](C)CO)C[C@H]2C)cc1
C[C@@H]1CCCCO[C@H](CN(C)Cc2ccccc2)[C@H](C)CN([C@H](C)CO)C(=O)c2cc(NS(=O)(=O)c3cccs3)ccc2O1
CC(C)NC(=O)N(C)C[C@H]1Oc2c(NC(=O)C3CCCCC3)cccc2C(=O)N([C@H](C)CO)C[C@H]1C
COc1ccc2c3c(n(c2c1)C)[C@@H](CO)N(C[C@]13CCN(CC1)C(=O)CN(C)C)C(=O)C1CCCCC1
C[C@@H]1CCCCO[C@H](CN(C)C(=O)Nc2ccc3c(c2)OCO3)[C@@H](C)CN([C@@H](C)CO)C(=O)c2cc(NC(=O)CCC(F)(F)F)ccc2O1
CCN(CC)C(=O)c1cccc(C)c1
COCC(=O)NC1CCN(C2CCNCC2)CC1
COCCOC(=O)N1C(=O)[C@@]2(c3cc(C#CCCO)ccc31)[C@H](c1ccc(O)cc1)N1[C@H](c3ccccc3)[C@H](c3ccccc3)OC(=O)[C@H]1[C@@H]2C(=O)N1CCc2cc(OC)c(OC)cc2C1
O=C(NCCCN1CCCC1=O)c1cccnc1
COc1ccc(NC(=O)N(C)C[C@@H]2OCCCC[C@H](C)Oc3ccc(NS(=O)(=O)c4ccc(F)cc4)cc3C(=O)N([C@H](C)CO)C[C@@H]2C)cc1
COc1ccc(-c2cc(=O)c3c(OC)c(OC)c(OC)c(OC)c3o2)cc1
C[C@H](CO)N1C[C@H](C)[C@H](CN(C)Cc2ccccc2)OCCCC[C@H](C)Oc2ccc(NC(=O)Nc3ccc4c(c3)OCO4)cc2C1=O
C[C@H](CO)N1C[C@H](C)[C@H](CN(C)C)Oc2ccc(NS(C)(=O)=O)cc2CC1=O
C[C@H]1CCCCO[C@@H](CN(C)S(=O)(=O)c2cccs2)[C@@H](C)CN([C@@H](C)CO)C(=O)c2cc(NC(=O)Nc3ccc4c(c3)OCO4)ccc2O1
S=c1cc(-c2ccccc2)oc(-c2ccccc2)c1
COCC(=O)Nc1ccc2c(c1)C(=O)N(C)C[C@@H](OC)[C@@H](C)CN(Cc1ccccc1F)[C@H](C)CO2
O=C(C[C@H]1C[C@H]2c3cc(NC(=O)Nc4ccc(C(F)(F)F)cc4)ccc3O[C@H]2[C@H](CO)O1)NC1CCCCC1
